Results reported in the supplement of paper PMC10126150.
Values marked as one replicate rest on one cluster of the flow cell; about a third of the high ones do not repeat.

System: ATP
Assay: switch fluorescence ratio, 500 uM ATP over buffer (Cy3 cluster intensity, sum of 5 cycles each) (fold (ratio)); higher = stronger signal-on switching upon ATP binding; sequences stand for … in TCGTCGGCAGCGTCAGATGTGTATAAGAGACAGTTTTTTTTTTTTTTTTTTTTTTTTT…TC
Conditions: aptamer strand: ATP DNA aptamer (quencher-CACCTGGGGGAGTATTGCGGAGGAAGG + anchor), 100 nM annealed; ATP concentration: 500 uM; one replicate
Summary of the method: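 Five buffer/ATP imaging cycles were run on Cy3-labelled switching-strand clusters on a modified Illumina MiSeq flow-cell, with NaOH stripping and re-annealing between cycles. In each cycle, clusters annealed to 100 nM quencher-labelled ATP aptamer were imaged in selection buffer, then after 15 min with 500 uM ATP at 22 °C. Per cluster, the fluorescence ratio is summed target-cycle over summed buffer-cycle Cy3 intensity, averaged per switch-domain sequence. Only clusters within 100-1000 RFU were kept.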
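Also: ATP exposure 15 min at 22 °C before imaging.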

Row | Sequence | switch fluorescence ratio
1 | CGTAAGGGG | 0.988
2 | CAGGACAGGT | 0.998
3 | ACTTGTTGAA | 1.01
4 | AGGAGAAACT | 0.945
5 | AATTGACATA | 1.05
6 | CGTTTCATCA | 0.983
7 | TGGGACGGAT | 1.03
8 | GCATGATGAA | 0.955
9 | CTAGCTACGT | 1
10 | GTTGCTGCGC | 1.08
11 | CTGAATCGGT | 0.983
12 | CAAGTAGAAG | 0.994
13 | GTAGAGTGCA | 1.02
14 | GTGGAAAAAC | 1.02
15 | GTGGCCTAGG | 1.1
16 | AAACTGACTT | 1.1
17 | TGGCGGTGCG | 1
18 | TGGTGGAAGT | 0.991
19 | TGGTTCATG | 0.985
20 | CATGGTCAGA | 1.03
21 | CGTATTTGGC | 1.03
22 | ACGTTACTAA | 1.33
23 | CAACGTACCT | 1.63
24 | GTCCAAGACC | 1.09
25 | CGTATATCAG | 0.971
26 | CTTGGGCAA | 2

Row | Sequence | switch fluorescence ratio
27 | TTACTATGGT | 0.998
28 | GACGAGGTGT | 1.08
29 | TGCTTGGATG | 1.07
30 | ATGAGGCCTG | 1.02
31 | GGGAGACTGG | 0.961
32 | TAGGTAAATA | 0.98
33 | CATCGTAACT | 1.06
34 | GTGACGTGCT | 0.922
35 | CCCATTAGCG | 0.984
36 | GATCCGTGGC | 1.14
37 | GGACGCAAGA | 3.78
38 | TTTCTACAAT | 1.07
39 | TTGTCTGAGA | 0.99
40 | GCGGTCAGAG | 1.01
41 | GGTGTTGTCC | 0.963
42 | GAATGGGTGG | 0.965
43 | CCTGAGTCAT | 1.12
44 | TCATTGAAAT | 0.973
45 | ATAGTCGATA | 0.976
46 | GGTTTCCGGT | 0.969
47 | TCGAAATCAG | 0.972
48 | GAAGTGGAGC | 1.02
49 | ATACTAGTTC | 0.972
50 | GCCGGTAAGA | 1.01
51 | ACTTCGAGT | 1.05
52 | TAGACTAAGA | 1

Row | Sequence | switch fluorescence ratio
53 | TTCGAGCTGC | 0.984
54 | CCTGCCTGCA | 1.56
55 | AGGTTTACTC | 0.976
56 | GTGCTAGAAT | 0.983
57 | AATTCACCAG | 1.09
58 | GGCTTCGTTG | 0.993
59 | ACTTGGTGCA | 1.04
60 | TATCAATTCA | 0.985
61 | GAGTCTGATG | 0.973
62 | TAGCATTGGC | 0.969
63 | ACTGCGTCGC | 1.04
64 | ATTCGTATAC | 2.15
65 | ATTATAAACG | 1.04
66 | CGGCTAATT | 1.03
67 | GTCATGGAGT | 0.954
68 | ACTGATCCCT | 1.01
69 | TCTATGTCCC | 1.03
70 | CCGGGGTATG | 1.06
71 | TTAGTAATCA | 1.02
72 | CAAGCCACAA | 1.12
73 | GAGTTTTATT | 1.01
74 | AGCGCAGTGA | 0.999
75 | GCGTTTTGTG | 0.979
76 | GACGACTGTT | 1.07
77 | TATTTTATCT | 0.98
78 | CTTTATAG | 1.01

Row | Sequence | switch fluorescence ratio
79 | AAATTCAATT | 0.989
80 | GATTCGTACA | 0.98
81 | TACTAGACGC | 1.13
82 | ATCACGTAT | 1.14
83 | TTGCGTCG | 0.991
84 | TAGATATGAA | 1.02
85 | AAATAAGGGC | 1.01
86 | GAAGAGTCGG | 0.972
87 | GTAAGTGATA | 1.03
88 | ATAGTGAGAT | 1.01
89 | TACCGTTTTC | 0.984
90 | CAATAATTTT | 1.02
91 | CGAAGGGAAG | 1.02
92 | TACGGCCACA | 1.22
93 | CGCGGAAAGC | 1.1
94 | ACGTAGAAGA | 1.09
95 | TGTATATAAG | 0.995
96 | GTCTAACCTG | 1.02
97 | CGCGAAGGCC | 1.01
98 | AGGTTCCGCT | 1.07
99 | AAATAAAAGG | 1
100 | GGCTCAATGA | 1.01
101 | TATGGTAACG | 0.965
102 | GGTGAATCAT | 0.985
103 | TATTTTTTT | 1
104 | CGACATGGAT | 1.07

Row | Sequence | switch fluorescence ratio
105 | CGCTTAATAG | 2.14
106 | TCGGTTACCC | 1.01
107 | AAAGCCGTGT | 1.04
108 | CGACGTAGAG | 1.1
109 | GCGCCGTTTT | 1.01
110 | ATCCAAAACC | 1.08
111 | ATAAGTCGGC | 0.958
112 | GTGACCACCG | 1.03
113 | TCGAGGCCAA | 2.16
114 | TCAAGGTAGG | 1
115 | ACCAAAATAA | 1.09
116 | TAATTTTTAT | 0.964
117 | GGAGTGGACA | 1.03
118 | ACTATGAAGC | 1.05
119 | CCAAGCAAAG | 2.65
120 | CCGGGAGATT | 1.05
121 | CGAATGATGC | 1.02
122 | TTAAGAATGA | 0.968
123 | AGTATATTGC | 1.22
124 | CGAAAGTCGG | 0.964
125 | GATAGCCAGG | 1.24
126 | TGGACCCTTT | 1.02
127 | CAGCACAGGT | 1.5
128 | GGTGGAGTGT | 1.02
129 | CAGGTTCTTT | 0.994
130 | AATTTCGTC | 0.94

Row | Sequence | switch fluorescence ratio
131 | CGTAAGCAAT | 4.95
132 | ATATTTTCTT | 1.02
133 | AGCGAGGC | 1.29
134 | TTGGCCACTG | 0.968
135 | TTTATAGGTA | 1.06
136 | ATCCGGTTAG | 1.09
137 | TTGTTTGCCC | 1.02
138 | CAACTCAGTG | 1
139 | TATGTGCTAA | 1.04
140 | CACAGTATCA | 1.07
141 | GACGTCGTGT | 0.994
142 | CGGGTGCGG | 0.991
143 | GGTACCCCGG | 1.07
144 | TATTACCTGG | 0.974
145 | CTGTGCACGT | 1.02
146 | AGCGATCTAT | 1.01
147 | GAAATATTCG | 0.992
148 | ACGCCGCATT | 3.12
149 | CGATTTTATA | 1
150 | GCCTTATACG | 1.09
151 | TGAGATGGGT | 0.963
152 | AAACCCGTTT | 1.01
153 | GCACATCTGC | 1.01
154 | TACTGGCTTC | 0.996
155 | CGTTACCTCA | 1.04
156 | CAACCCCGTA | 1.02

Row | Sequence | switch fluorescence ratio
157 | TAGTGGTAAG | 0.974
158 | AGAAGGTTGG | 0.976
159 | AAGGCATGAA | 0.987
160 | GCTTTCATTA | 1.02
161 | ACATTCGGCG | 1.04
162 | TAAATCCCTA | 1
163 | GAACTCATAA | 1.04
164 | GTACCGGCG | 0.978
165 | TTGATAGCGA | 1.81
166 | ATATATGCAA | 1.02
167 | GCGCGTATCC | 1.06
168 | ATGGGTGAA | 0.988
169 | GTTCTCTAAT | 1.03
170 | TTGTATTTAT | 0.994
171 | GCGGATGGTA | 1.02
172 | TTGGCTGGGG | 0.965
173 | CTCATGGTAC | 1.57
174 | TTTGGACTTA | 0.971
175 | TAAAGTCACA | 1.05
176 | GAAAGGTATG | 1.04
177 | GTGTACATCG | 1.01
178 | CTTTTCAGC | 1.03
179 | ACGTGCAGCA | 0.954
180 | GACTTTAAAC | 0.99
181 | ACCGTCACTA | 1.26
182 | GAGTGAGATG | 1.01

Row | Sequence | switch fluorescence ratio
183 | CAGTAGACAA | 1.41
184 | GACTCCAGCT | 2.03
185 | TGATTATCCG | 0.963
186 | AATGTCTACA | 0.978
187 | CTCCCGCGTT | 1.23
188 | TACTCGTCA | 1.03
189 | TGGGGTATGC | 0.993
190 | AGTGACTCGT | 0.963
191 | TGCTGACAGA | 0.976
192 | CCATAAAAGT | 0.947
193 | CATAGACTTG | 1.01
194 | GGAGCTTATG | 1.11
195 | TACCAATTGA | 1.01
196 | GCAATTTGTT | 1.04
197 | GCCTAGGGGT | 4.11
198 | AACGTTTCGT | 0.981
199 | AGCACGATG | 1.01
200 | AGGTAGTTCA | 1.03
201 | TTCGTTCCCG | 0.959
